Data published in PubChem BioAssay AID1460 (National Center for Advancing Translational Sciences (NCATS), 2008).
The campaign covered roughly 270,000 compounds. About 5,800 (2.1%) were called active. The inconclusive results got no clear call from the source; some entries with a clear call stand among them for comparison. The call rests on the fitted dose curve; in most records, active means well fitted inhibition curve with a large enough effect; inconclusive means small, poorly fitted or top-dose-only effect; inactive means flat fitted curve, though single readings scatter. Potencies of inconclusive entries are doubtful fits and often do not repeat.

biological target: Microtubule-associated protein tau (Homo sapiens) (UniProt P10636); experiment: qHTS for Inhibitors of Tau Fibril Formation, Thioflavin T Binding; conditions: recombinant tau K18 P301L (four-repeat tau fragment), heparin-induced fibrillization, ThT fluorescence; series mostly up to 57.4 µM; activity, negative = inhibition: at the top concentration; further: nearly all actives have a fitted effect of over 55% in size
Sequence of UniProt P10636 (P10636 whole entry, looked up, the tested form may be a part): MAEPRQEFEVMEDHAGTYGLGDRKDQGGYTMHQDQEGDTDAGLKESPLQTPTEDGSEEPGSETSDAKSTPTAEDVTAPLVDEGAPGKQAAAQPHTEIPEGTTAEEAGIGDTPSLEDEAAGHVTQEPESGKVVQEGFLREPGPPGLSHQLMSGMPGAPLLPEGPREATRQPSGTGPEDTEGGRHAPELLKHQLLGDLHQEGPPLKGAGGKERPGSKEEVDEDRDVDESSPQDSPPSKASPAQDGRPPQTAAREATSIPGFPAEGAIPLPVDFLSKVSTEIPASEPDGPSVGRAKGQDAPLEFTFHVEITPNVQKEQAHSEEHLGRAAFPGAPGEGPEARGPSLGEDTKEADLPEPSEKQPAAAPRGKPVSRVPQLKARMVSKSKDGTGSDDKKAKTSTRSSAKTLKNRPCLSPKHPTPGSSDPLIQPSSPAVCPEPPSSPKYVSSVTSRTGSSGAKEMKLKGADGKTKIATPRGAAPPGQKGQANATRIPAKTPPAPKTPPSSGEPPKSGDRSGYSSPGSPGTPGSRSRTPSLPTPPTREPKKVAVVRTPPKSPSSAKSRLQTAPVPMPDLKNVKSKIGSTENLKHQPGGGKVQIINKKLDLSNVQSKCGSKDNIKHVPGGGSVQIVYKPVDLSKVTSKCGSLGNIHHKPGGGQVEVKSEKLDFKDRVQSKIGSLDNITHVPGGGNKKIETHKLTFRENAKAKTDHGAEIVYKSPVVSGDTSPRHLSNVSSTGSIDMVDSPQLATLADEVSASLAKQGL
In short: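 K18 P301L tau (15 uM + 0.24 uM Alexa 594-tagged), heparin 20 uM, NaOAc pH 7, 6 h 37 C; ThT 30 uM, 1 h RT, ex 450/em 510 nm.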
On the % scale 0 is the no-effect control and ±100 the full control effect; potency means the concentration at half of the fitted maximal effect; tags describe the fitted curve by direction and shape.

Structure (SMILES) | Potency | activity, negative = inhibition
O=C(Nc1nnc(-c2cccnc2)o1)c1cccc([N+](=O)[O-])c1 | inconclusive: 28.2 µM [inhibitor, single point] | –
CCCOc1ccc2nc(C)c(CCC)c(SC(=N)N)c2c1 | inconclusive: 17.8 µM [inhibitor, partial curve, poor fit] | –
CCn1c(SCCC(C)C)nnc1-c1c[nH]c2ccccc12 | inconclusive: 31.6 µM [inhibitor, single point] | –
CCn1cc(C(=O)NCc2ccccn2)c(=O)c2cc(S(=O)(=O)N3CCCCC3)ccc21 | – | inactive: 4.24%
CCOc1ccc(NC(=O)CSC(N)=O)cc1 | inconclusive: 22.4 µM [inhibitor, partial curve] | –
N#Cc1ccsc1NC(=O)COc1ccc(-c2nnco2)cc1 | inconclusive: 25.1 µM [inhibitor, partial curve] | –
Cc1cc(C)nc(Sc2nc(Cl)nc(N(c3ccccc3)c3ccccc3)n2)n1 | inconclusive: 17.8 µM [inhibitor, partial curve] | –
Cc1cc(OC(C)C(=O)N(Cc2ccc(N(C)C)cc2)Cc2ccco2)ccc1Cl (stereo not drawn) | – | inactive: -15.2%
Nc1ccccc1Nc1ccccc1 | inconclusive: 12.6 µM [inhibitor, partial curve] | –
CC1CCCN(CCCNC(=O)c2ccc3c(c2)N(Cc2ccc(Cl)cc2)C(=O)c2ccccc2S3(=O)=O)C1 (stereo not drawn) | – | inactive: -4.99%
CC(C)(C)C1CCC(=NNC(=O)c2ccc(Br)o2)CC1 (stereo not drawn) | inconclusive: 25.1 µM [inhibitor, single point] | –
CCOC(=O)C1CCN(C(c2ccccn2)c2c(C)[nH]c3ccccc23)CC1 (stereo not drawn) | inconclusive: 12.6 µM [inhibitor, partial curve] | –
O=C(NC(C(=O)c1ccccc1)N1CCCCCC1)c1ccco1 (stereo not drawn) | inconclusive: 17.8 µM [inhibitor, single point] | –
Cc1c(CN2CCCCC2)c(O)n(CCCO)c(=O)c1C#N | inconclusive: 17.8 µM [inhibitor, partial curve] | –
Cc1ccc(C2=C/C(=C/c3cccs3)C(=O)O2)cc1 | inconclusive: 2.51 µM [inhibitor, full curve] | –
COc1cc(C(C)=O)ccc1OC(=O)c1cc2cccc(OC)c2oc1=O | inconclusive: 25.1 µM [inhibitor, partial curve] | –
CC(=O)c1ccc(OCC(O)CN2CCN(c3ccccn3)CC2)cc1 (stereo not drawn) | inconclusive: 5.01 µM [inhibitor, partial curve] | –
O=C(O)c1cc([N+](=O)[O-])ccc1Nc1ccccc1 | inconclusive: 7.08 µM [inhibitor, partial curve] | –
CCC(=O)N1CCc2cc(Br)cc(S(=O)(=O)N3CCCCCC3)c21 | – | inactive: -3.27%
CC(C)C(NC(=O)c1ccccc1Cl)C(=O)OCc1nc2scc(-c3ccccc3Cl)c2c(=O)[nH]1 (stereo not drawn) | inconclusive: 31.6 µM [inhibitor, single point] | –
Fc1ccc(-n2ncc3c(Nc4ccc5c(c4)OCCO5)ncnc32)cc1 | inconclusive: 35.5 µM [activator, single point] | –
Cc1cccn2cc(CCNC(=O)c3ccco3)nc12 | inconclusive: 28.2 µM [inhibitor, single point] | –
COc1ccc(-c2csc(-c3ccc(O)cc3)n2)cc1 | inconclusive: 14.1 µM [inhibitor, partial curve, poor fit] | –

Structure (SMILES) | Potency | activity, negative = inhibition
O=C(/C=C/c1ccco1)NC(=S)Nc1ccc(O)c(-c2nc3ccccc3s2)c1 | inconclusive: 4.47 µM [inhibitor, partial curve] | –
O=C(Nc1ccc(F)cc1)C1C2CCC3C(CCC21)C3(Cl)Cl (stereo not drawn) | – | inactive: 1.17%
Cc1cc(C)n2c(Br)c(CSc3nc4ccccc4o3)nc2n1 | inconclusive: 22.4 µM [inhibitor, partial curve, poor fit] | –
Cn1nnc2c(N3CCN(c4ccc(F)cc4)CC3)ncnc21 | inconclusive: 5.01 µM [inhibitor, partial curve] | –
COc1ccc(Cl)cc1NC(=O)Cn1ccn(-c2cc(C)cc(C)c2)c(=O)c1=O | – | inactive: -2.72%
CCOc1ccc(NC2C=CS(=O)(=O)C2)cc1 (stereo not drawn) | active: 35.5 µM | –
CCN(CC)C(C)CN1c2ccccc2Sc2ccccc21 (stereo not drawn) | inconclusive: 17.8 µM [inhibitor, partial curve] | –
Cc1ccc(-n2c(C)nc3c(cnn3-c3ccc(C)c(C)c3)c2=O)cc1C | inconclusive: 44.7 µM [inhibitor, single point] | –
Cc1nc(-n2ncc(C#N)c2N)c2c3c(sc2n1)CCC3 | – | inactive: -7.85%
CNC(=O)c1ccc2c(c1)N(Cc1cc(C)ccc1C)C(=O)c1ccccc1S2 | – | inactive: -3.58%
CN(CCc1ccccn1)C(=O)c1cccnc1Oc1ccc(Cl)cc1 | – | inactive: -6.43%
CCCOc1ncnc2c1[nH]c1ccccc12 | inconclusive: 31.6 µM [inhibitor, partial curve, poor fit] | –
Cc1cc(NC(=O)c2cc(C(C)C)on2)nn1Cc1ccc(Cl)cc1 | inconclusive: 2.51 µM [inhibitor, partial curve, poor fit] | –
CO/N=C(/C(=O)NC1C(=O)N2C(C(=O)O)=C(COC(N)=O)CSC12)c1ccco1 (stereo not drawn) | inconclusive: 22.4 µM [inhibitor, partial curve] | –
CCOc1ccc2nc(NC(=O)C(NS(=O)(=O)c3cccc4nsnc34)C(C)C)sc2c1 (stereo not drawn) | inconclusive: 25.1 µM [inhibitor, partial curve, poor fit] | –
COc1ccccc1CCNC(=O)CSc1ccc(-c2cccs2)nn1 | inconclusive: 11.2 µM [inhibitor, partial curve] | –
CCc1ccc(C2CC(c3ccc(Cl)cc3)=NNC2=O)cc1 (stereo not drawn) | inconclusive: 17.8 µM [inhibitor, partial curve] | –
COc1cc(C(=O)NCCc2csc(-c3ccc(Cl)cc3)n2)cc(OC)c1OC | inconclusive: 11.2 µM [inhibitor, partial curve, poor fit] | –
COC(=O)c1cc(COc2ccc3c4c(c(=O)oc3c2)CCC4)c(C)o1 | inconclusive: 3.16 µM [inhibitor, full curve] | –
COc1ccc(-c2noc(CSc3nnc(C)n3-c3cccc(C)c3)n2)cc1 | – | inactive: -12.3%
O=C(O)c1ccc(N/N=C/c2cn(-c3ccccc3)nc2-c2cccs2)cc1 | inconclusive: 15.8 µM [inhibitor, partial curve] | –
N=C1S/C(=C\c2ccco2)C(=O)N1c1ccc2c(c1)OCO2 | active: 15.8 µM | –
COCC(C)N1CC(O)=C(c2nc(-c3ccc(Cl)cc3)cs2)C1=N (stereo not drawn) | inconclusive: 14.1 µM [inhibitor, partial curve] | –

Structure (SMILES) | Potency | activity, negative = inhibition
Cc1ccnc(N2CCC(C(=O)Nc3ccc4c(c3)OCO4)CC2)n1 | inconclusive: 6.31 µM [inhibitor, partial curve] | –
CCN(CC)c1cc(C)c2cc(NC(=O)CNC(C)=O)ccc2n1 | – | inactive: -0.351%
Cc1cn(S(=O)(=O)c2ccc(Br)c3ccccc23)cn1 | – | inactive: -10.9%
O=C(NCCc1ccccc1)c1ccc(Nc2nc3ccccc3n3nnnc23)cc1 | – | inactive: -1.87%
COc1cccc(C2C(C(=O)c3cc4cccc(OC)c4o3)=C(O)C(=O)N2c2cc(C)on2)c1OC (stereo not drawn) | inconclusive: 10 µM [inhibitor, partial curve] | –
Cc1cccc(Nc2nc(N)c([N+](=O)[O-])c(N3CCCC(C)C3)n2)c1 (stereo not drawn) | inconclusive: 12.6 µM [inhibitor, partial curve] | –
COc1ccc(NC(=S)Nc2cc(C)cc(C)n2)cc1OC | inconclusive: 35.5 µM [inhibitor, single point] | –
O=C(Nc1ccc2c(c1)OCCO2)c1cc2ccccc2o1 | inconclusive: 10 µM [inhibitor, partial curve, poor fit] | –
Cc1ccc(Nc2nc(Cl)c(C=O)s2)cc1Cl | inconclusive: 15.8 µM [inhibitor, partial curve, poor fit] | –
Cc1cccc(CCNC(=O)c2cc3c(s2)-c2c(C)cccc2OC3)c1 | inconclusive: 1.78 µM [inhibitor, full curve, poor fit] | –
CCOc1ccc(NC(=O)C2CSC(c3ccncc3)=N2)cc1 (stereo not drawn) | inconclusive: 35.5 µM [inhibitor, single point] | –
O=C(Nc1ccc(OC(F)(F)F)cc1)Nc1cccc([N+](=O)[O-])c1 | inconclusive: 6.31 µM [inhibitor, partial curve] | –
COc1ccc2[nH]c(=O)c(CN(Cc3cccs3)C(=S)Nc3ccccc3)cc2c1 | – | inactive: -0.409%
CCOc1ccc(-c2nc(-c3cccnc3)no2)cc1OCC | inconclusive: 28.2 µM [inhibitor, partial curve] | –
CSc1nc2ccc3nc(NC(=O)c4ccccc4)sc3c2s1 | inconclusive: 17.8 µM [activator, single point] | –
Cc1ccc(C(=O)N/C(=C\c2ccc(-c3cc(Cl)ccc3Cl)o2)C(=O)NCc2cccnc2)cc1 | inconclusive: 3.55 µM [inhibitor, full curve] | –
CCn1nnnc1SCC(=O)Nc1nc(-c2cccs2)cs1 | inconclusive: 31.6 µM [inhibitor, single point] | –
Clc1nssc1=Nc1ccccc1 | active: 28.2 µM | –
CC1(C(=O)NNC(=O)c2ccc(=O)oc2)CC1Br (stereo not drawn) | inconclusive: 3.98 µM [inhibitor, partial curve] | –
CCOC(=O)c1c(N)sc(C(=O)OC)c1C | inconclusive: 12.6 µM [inhibitor, partial curve] | –
COCCn1c(CNC(=O)c2cccc(C)c2)nc2cccnc21 | – | inactive: -5.4%
COc1ccc(CNC(=O)CS(=O)Cc2nc(-c3ccc(C)cc3)oc2C)cc1 (stereo not drawn) | inconclusive: 28.2 µM [inhibitor, single point] | –
